# Test results reported in the supplement of paper PMC8728848.
# Some of the results follow.
# B1: EULS2 M2 (Oryza sativa) (protein)
# chain: MVYCRANPNYAMTARNGAVVLAPANPKDEYQHWIKDMRWSTSIKDEEGYPAFALVNKATGQAIKHSLGQSHPVRLVPYNPEVMDESVLWTESRDVGNGFRCIRMVNNIYLNFDAFHGDKYHGGVRDGTDIVLWKLCEGDSQRWKIQPYYILEQKLISEEDLNSAVDHHHHHH
# Legend:
# Experiment in all cases: glycan array binding signal (z-score within array); higher = stronger binding
# Conditions in all cases: glycan notation: IUPAC condensed, linker removed
# Fuc(a1-2)Gal = target: Fuc(a1-2)Gal
# Method in brief: (§1)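 The binding signal is a Z-score computed within each array and averaged over linkers. Arrays of the same protein sequence at different concentrations or buffers were also averaged together. Data originate from 3228 arrays in the Consortium for Functional Glycomics database, kept only where the protein sequence was available.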
# Fuc(a1-2)Gal(b1-3)GalNAc = target: Fuc(a1-2)Gal(b1-3)GalNAc
# Method in brief: as §1
# [1] = target: Fuc(a1-2)Gal(b1-3)GalNAc(a1-3)[Fuc(a1-2)]Gal(b1-4)Glc
# Method in brief: as §1
# [2] = target: Fuc(a1-2)Gal(b1-3)GalNAc(a1-3)[Fuc(a1-2)]Gal(b1-4)GlcNAc
# Method in brief: as §1
# [3] = target: Fuc(a1-2)Gal(b1-3)GalNAc(b1-3)Gal
# Method in brief: as §1
# [4] = target: Fuc(a1-2)Gal(b1-3)GalNAc(b1-3)Gal(a1-4)Gal(b1-4)Glc
# Method in brief: as §1
# [5] = target: Fuc(a1-2)Gal(b1-3)GalNAc(b1-4)[Neu5Ac(a2-3)]Gal(b1-4)Glc
# Method in brief: as §1
# Fuc(a1-2)Gal(b1-3)GlcNAc = target: Fuc(a1-2)Gal(b1-3)GlcNAc
# Method in brief: as §1
# [6] = target: Fuc(a1-2)Gal(b1-3)GlcNAc(b1-2)Man(a1-3)[Fuc(a1-2)Gal(b1-3)GlcNAc(b1-2)Man(a1-6)]Man(b1-4)GlcNAc(b1-4)GlcNAc
# Method in brief: as §1
# [7] = target: Fuc(a1-2)Gal(b1-3)GlcNAc(b1-2)Man(a1-3)[Fuc(a1-2)Gal(b1-3)GlcNAc(b1-2)Man(a1-6)]Man(b1-4)GlcNAc(b1-4)[Fuc(a1-6)]GlcNAc
# Method in brief: as §1
# [8] = target: Fuc(a1-2)Gal(b1-3)GlcNAc(b1-3)Gal(b1-4)Glc
# Method in brief: as §1
# [9] = target: Fuc(a1-2)Gal(b1-3)GlcNAc(b1-3)GalNAc
# Method in brief: as §1
# [10] = target: Fuc(a1-2)Gal(b1-3)GlcNAc(b1-3)[Fuc(a1-2)Gal(b1-3)GlcNAc(b1-6)]GalNAc
# Method in brief: as §1
# [11] = target: Fuc(a1-2)Gal(b1-3)GlcNAc(b1-3)[Gal(b1-4)GlcNAc(b1-6)]Gal(b1-4)Glc
# Method in brief: as §1
# [12] = target: Fuc(a1-2)Gal(b1-3)GlcNAc(b1-3)[Neu5Ac(a2-6)Gal(b1-4)GlcNAc(b1-6)]Gal(b1-4)Glc
# Method in brief: as §1
# [13] = target: Fuc(a1-2)Gal(b1-3)GlcNAc6S
# Method in brief: as §1
# [14] = target: Fuc(a1-2)Gal(b1-3)[Fuc(a1-4)]GlcNAc
# Method in brief: as §1
# [15] = target: Fuc(a1-2)Gal(b1-3)[Fuc(a1-4)]GlcNAc(b1-2)Man(a1-3)[Fuc(a1-2)Gal(b1-3)[Fuc(a1-4)]GlcNAc(b1-2)Man(a1-3)]Man(b1-4)GlcNAc(b1-4)GlcNAc
# Method in brief: as §1
# [16] = target: Fuc(a1-2)Gal(b1-3)[Fuc(a1-4)]GlcNAc(b1-2)Man(a1-3)[Fuc(a1-2)Gal(b1-3)[Fuc(a1-4)]GlcNAc(b1-2)Man(a1-6)]Man(b1-4)GlcNAc(b1-4)[Fuc(a1-6)]GlcNAc(b1-4)[Fuc(a1-6)]GlcNAc
# Method in brief: as §1
# [17] = target: Fuc(a1-2)Gal(b1-3)[Fuc(a1-4)]GlcNAc(b1-3)[Fuc(a1-3)[Gal(b1-4)]GlcNAc(b1-6)]Gal(b1-4)Glc
# Method in brief: as §1
# [18] = target: Fuc(a1-2)Gal(b1-3)[Fuc(a1-4)]GlcNAc(b1-3)[Gal(b1-4)GlcNAc(b1-6)]Gal(b1-4)Glc
# Method in brief: as §1
# Fuc(a1-2)Gal(b1-4)Glc = target: Fuc(a1-2)Gal(b1-4)Glc
# Method in brief: as §1
# Fuc(a1-2)Gal(b1-4)Glc6S = target: Fuc(a1-2)Gal(b1-4)Glc6S
# Method in brief: as §1
# Fuc(a1-2)Gal(b1-4)GlcNAc = target: Fuc(a1-2)Gal(b1-4)GlcNAc
# Method in brief: as §1
# [19] = target: Fuc(a1-2)Gal(b1-4)GlcNAc(b1-2)Man
# Method in brief: as §1
# [20] = target: Fuc(a1-2)Gal(b1-4)GlcNAc(b1-2)Man(a1-3)[Fuc(a1-2)Gal(b1-4)GlcNAc(b1-2)Man(a1-6)]Man(b1-4)GlcNAc(b1-4)GlcNAc
# Method in brief: as §1
# [21] = target: Fuc(a1-2)Gal(b1-4)GlcNAc(b1-2)Man(a1-3)[Fuc(a1-2)Gal(b1-4)GlcNAc(b1-2)Man(a1-6)]Man(b1-4)GlcNAc(b1-4)[Fuc(a1-6)]GlcNAc
# Method in brief: as §1
# [22] = target: Fuc(a1-2)Gal(b1-4)GlcNAc(b1-2)[Fuc(a1-2)Gal(b1-4)GlcNAc(b1-4)]Man(a1-3)[Fuc(a1-2)Gal(b1-4)GlcNAc(b1-2)Man(a1-6)]Man(b1-4)GlcNAc(b1-4)GlcNAc
# Method in brief: as §1
# [23] = target: Fuc(a1-2)Gal(b1-4)GlcNAc(b1-3)Gal(b1-4)GlcNAc
# Method in brief: as §1
# [24] = target: Fuc(a1-2)Gal(b1-4)GlcNAc(b1-3)Gal(b1-4)GlcNAc(b1-2)Man(a1-3)[Fuc(a1-2)Gal(b1-4)GlcNAc(b1-3)Gal(b1-4)GlcNAc(b1-2)Man(a1-6)]Man(b1-4)GlcNAc(b1-4)GlcNAc
# Method in brief: as §1
# [25] = target: Fuc(a1-2)Gal(b1-4)GlcNAc(b1-3)Gal(b1-4)GlcNAc(b1-3)Gal(b1-4)GlcNAc
# Method in brief: as §1
# [26] = target: Fuc(a1-2)Gal(b1-4)GlcNAc(b1-3)GalNAc
# Method in brief: as §1
# [27] = target: Fuc(a1-2)Gal(b1-4)GlcNAc(b1-3)[Fuc(a1-2)Gal(b1-4)GlcNAc(b1-6)]GalNAc
# Method in brief: as §1
# [28] = target: Fuc(a1-2)Gal(b1-4)GlcNAc(b1-3)[Fuc(a1-3)[Gal(b1-4)]GlcNAc(b1-6)]Gal(b1-4)Glc
# Method in brief: as §1
# [29] = target: Fuc(a1-2)Gal(b1-4)GlcNAc(b1-6)GalNAc
# Method in brief: as §1
# [30] = target: Fuc(a1-2)Gal(b1-4)GlcNAc6S
# Method in brief: as §1
# [31] = target: Fuc(a1-2)Gal(b1-4)[Fuc(a1-3)]GlcNAc
# Method in brief: as §1
binder,measurement,setting,value
B1,glycan array binding signal (z-score),Fuc(a1-2)Gal,-0.308
same,glycan array binding signal (z-score),Fuc(a1-2)Gal(b1-3)GalNAc,-0.33
same,glycan array binding signal (z-score),[1],-0.34
same,glycan array binding signal (z-score),[2],-0.26
same,glycan array binding signal (z-score),[3],0.052
same,glycan array binding signal (z-score),[4],-0.02
same,glycan array binding signal (z-score),[5],-0.129
same,glycan array binding signal (z-score),Fuc(a1-2)Gal(b1-3)GlcNAc,0.346
same,glycan array binding signal (z-score),[6],2.57
same,glycan array binding signal (z-score),[7],-0.266
same,glycan array binding signal (z-score),[8],-0.208
same,glycan array binding signal (z-score),[9],-0.533
same,glycan array binding signal (z-score),[10],-0.623
same,glycan array binding signal (z-score),[11],0.456
same,glycan array binding signal (z-score),[12],-0.382
same,glycan array binding signal (z-score),[13],0.296
same,glycan array binding signal (z-score),[14],0.051
same,glycan array binding signal (z-score),[15],0.103
same,glycan array binding signal (z-score),[16],0.849
same,glycan array binding signal (z-score),[17],-0.182
same,glycan array binding signal (z-score),[18],-0.265
same,glycan array binding signal (z-score),Fuc(a1-2)Gal(b1-4)Glc,0.089
same,glycan array binding signal (z-score),Fuc(a1-2)Gal(b1-4)Glc6S,-0.25
same,glycan array binding signal (z-score),Fuc(a1-2)Gal(b1-4)GlcNAc,-0.384
same,glycan array binding signal (z-score),[19],-0.221
same,glycan array binding signal (z-score),[20],0.692
same,glycan array binding signal (z-score),[21],-0.072
same,glycan array binding signal (z-score),[22],-0.044
same,glycan array binding signal (z-score),[23],-0.35
same,glycan array binding signal (z-score),[24],-0.268
same,glycan array binding signal (z-score),[25],-0.572
same,glycan array binding signal (z-score),[26],-0.499
same,glycan array binding signal (z-score),[27],-0.42
same,glycan array binding signal (z-score),[28],-0.337
same,glycan array binding signal (z-score),[29],-0.191
same,glycan array binding signal (z-score),[30],0.018
same,glycan array binding signal (z-score),[31],0.039
